Test [1] addresses T1, recombinant human herpes virus entry mediator (HVEM) (human, UniProt Q92956 39-202).
T1 construct: neither construct is described; also called human HVEM; recombinant human HVEM protein (R&D systems)
T1 sequence (looked up): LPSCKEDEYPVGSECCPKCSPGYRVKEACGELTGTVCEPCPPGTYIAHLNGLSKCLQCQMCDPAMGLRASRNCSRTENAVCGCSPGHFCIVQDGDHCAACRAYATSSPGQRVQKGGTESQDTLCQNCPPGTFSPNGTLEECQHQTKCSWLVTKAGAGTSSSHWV
Briefly: SPR, human HVEM immobilised on CM5, fusion protein as analyte, 1:1 binding model. On the procedure: (§1) Specifically, the surface of the CM5 chip was activated with a 1:1 mixture of […], and 5 to 6 μg/mL of human HVEM was immobilized for 60 seconds at a rate of 10 μL/min. The remaining active ester groups were blocked with 1 M ethanolamine. T3.01, T3.07, T3.09, T3.14, and T3.18 were each diluted to 100 nM in 1×HBS-EP+buffer solution and diluted by serial dilution. The diluted fusion proteins were reacted at a rate of 30 μL/min. The association and dissociation times were 180 seconds and 400 seconds, respectively. After the dissociation step, stabilization was performed for 60 seconds, and then the regeneration step was performed for 30 seconds with a 10 mM glycine pH 1.5 solution at a rate of 30 μL/min.
(In general: In SPR one partner is held on a chip, and binding of the other changes the refractive index at the surface.)

A further test addresses T2, human DcR3 (human, UniProt O95407 30-300).
T2 construct: also called LIGHT receptor DcR3
T2 sequence (looked up): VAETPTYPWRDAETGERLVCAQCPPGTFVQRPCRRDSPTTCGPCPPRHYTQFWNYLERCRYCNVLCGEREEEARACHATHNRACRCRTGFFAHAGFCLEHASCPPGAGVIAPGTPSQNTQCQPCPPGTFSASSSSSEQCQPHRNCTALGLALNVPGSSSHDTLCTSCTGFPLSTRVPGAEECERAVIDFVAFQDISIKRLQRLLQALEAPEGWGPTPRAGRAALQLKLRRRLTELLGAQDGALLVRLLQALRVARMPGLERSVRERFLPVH
Briefly: SPR, human DcR3 immobilised on CM5, fusion protein as analyte, 1:1 binding model. As to the method: as §1, with “DcR3” for “HVEM”, “50 nM or 200” for “100”

Test [2] concerns the target T3, recombinant human lymphotoxin beta receptor (LTβR) (human, UniProt P36941 28-227, limits assumed).
T3 construct: neither construct is described; also called human LTβR; recombinant human LTβR protein
T3 sequence (P36941 28-227 limits assumed): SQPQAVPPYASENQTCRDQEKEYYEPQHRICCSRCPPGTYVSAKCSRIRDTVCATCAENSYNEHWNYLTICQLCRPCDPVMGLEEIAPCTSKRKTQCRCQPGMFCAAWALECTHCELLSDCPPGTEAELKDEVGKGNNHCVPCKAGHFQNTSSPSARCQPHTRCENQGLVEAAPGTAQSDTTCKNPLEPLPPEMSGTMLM
Briefly: SPR, human LTβR immobilised on CM5, fusion protein as analyte, 1:1 binding model. As to the method:
as §1, with “5” for “5 to 6”, “LTβR” for “HVEM”, “T3.01, T3.07, T3.09, T3.14, and T3.18 were each diluted to 100 nM in 1×HBS-EP+buffer solution and diluted by serial dilution.” left out

B1: T3.09 (anti-hu FAP-hu scLIGHT2/anti-hu FAP-hu LIGHT, hu IgG1 (2 + 1)) (bispecific antibody)
heavy 1: QVQLVQSGAEVKKPGASVKVSCKTSRYTFTEYTIHWVRQAPGQRLEWIGGINPNNGIPNYNQKFKGRVTITVDTSASTAYMELSSLRSEDTAVYYCARRRIAYGYDEGHAMDYWGQGTLVTVSS[human IgG1 constant region with changes not spelt out]GGGSGGGGSEVNPAAHLTGANSSLTGSGGPLLWETQLGLAFLRGLSYHDGALVVTKAGYYYIYSKVQLGGVGCPLGLASTITHGLYKRTPRYPEELELLVSQQSPCGRATSSSRVWWDSSFLGGVVHLEAGEKVVVRVLDERLVRLRDGTRSYFGAFMVGGSGEVNPAAHLTGANSSLTGSGGPLLWETQLGLAFLRGLSYHDGALVVTKAGYYYIYSKVQLGGVGCPLGLASTITHGLYKRTPRYPEELELLVSQQSPCGRATSSSRVWWDSSFLGGVVHLEAGEKVVVRVLDERLVRLRDGTRSYFGAFMV
heavy 2: QVQLVQSGAEVKKPGASVKVSCKTSRYTFTEYTIHWVRQAPGQRLEWIGGINPNNGIPNYNQKFKGRVTITVDTSASTAYMELSSLRSEDTAVYYCARRRIAYGYDEGHAMDYWGQGTLVTVSSASTKGPSVFPLAPSSKSTSGGTAALGCLVKDYFPEPVTVSWNSGALTSGVHTFPAVLQSSGLYSLSSVVTVPSSSLGTQTYICNVNHKPSNTKVDKKV[human IgG1 Fc with changes not spelt out]GGGSGGGGSEVNPAAHLTGANSSLTGSGGPLLWETQLGLAFLRGLSYHDGALVVTKAGYYYIYSKVQLGGVGCPLGLASTITHGLYKRTPRYPEELELLVSQQSPCGRATSSSRVWWDSSFLGGVVHLEAGEKVVVRVLDERLVRLRDGTRSYFGAFMV
light: DIVMTQSPDSLAVSLGERATINCKSSQSLLYSRNQKNYLAWYQQKPGQPPKLLIFWASTRESGVPDRFSGSGFGTDFTLTISSLQAEDVAVYYCQQYFSYPLTFGQGTKVEIKRTVAAPSVFIFPPSDEQLKSGTASVVCLLNNFYPREAKVQWKVDNALQSGNSQESVTEQDSKDSTYSLSSTLTLSKADYEKHKVYACEVTHQGLSSPVTKSFNRGEC
notes: As T3.07 but without the DANG mutations; two copies of the light chain follow from the (2 + 1) format
What is called Kd is the equilibrium constant for the complex coming apart. What is called koff is a measure of how fast the partners let go of each other. In general, kon refers to a measure of how fast the partners come together. As for B1, in test [1], the Kd stood at 4.17 nM, the koff turned out to be 0.00167 s⁻¹ and the kon stood at 401000 M⁻¹ s⁻¹. In the test with human DcR3, binding was characterised by a dissociation constant (Kd) of 0.711 nM, the off-rate constant (koff) amounted to 0.000285 s⁻¹ and the kon amounted to 400000 M⁻¹ s⁻¹. In test [2], the Kd was found to be 0.628 nM, the koff worked out at 0.000483 s⁻¹ and the kon was determined as 770000 M⁻¹ s⁻¹.

(Values after patent publication US20250368754A1 (KANAPH THERAPEUTICS, published 2025).)
